From PMC4336329 (PLoS ONE, 2015)
The whole screen tested about 310,000 compounds, of which about 2,200 (0.71%) showed an effect of 50% or more. The effect is printed as a negative number. Some of the results follow.

Biological target: human ether-à-go-go-related gene (hERG) potassium channel (human, UniProt Q12809)
Assay: primary screen, population patch clamp on CHO cells stably expressing hERG

Chain of human ether-à-go-go-related gene (hERG) potassium channel (Q12809 whole entry, looked up): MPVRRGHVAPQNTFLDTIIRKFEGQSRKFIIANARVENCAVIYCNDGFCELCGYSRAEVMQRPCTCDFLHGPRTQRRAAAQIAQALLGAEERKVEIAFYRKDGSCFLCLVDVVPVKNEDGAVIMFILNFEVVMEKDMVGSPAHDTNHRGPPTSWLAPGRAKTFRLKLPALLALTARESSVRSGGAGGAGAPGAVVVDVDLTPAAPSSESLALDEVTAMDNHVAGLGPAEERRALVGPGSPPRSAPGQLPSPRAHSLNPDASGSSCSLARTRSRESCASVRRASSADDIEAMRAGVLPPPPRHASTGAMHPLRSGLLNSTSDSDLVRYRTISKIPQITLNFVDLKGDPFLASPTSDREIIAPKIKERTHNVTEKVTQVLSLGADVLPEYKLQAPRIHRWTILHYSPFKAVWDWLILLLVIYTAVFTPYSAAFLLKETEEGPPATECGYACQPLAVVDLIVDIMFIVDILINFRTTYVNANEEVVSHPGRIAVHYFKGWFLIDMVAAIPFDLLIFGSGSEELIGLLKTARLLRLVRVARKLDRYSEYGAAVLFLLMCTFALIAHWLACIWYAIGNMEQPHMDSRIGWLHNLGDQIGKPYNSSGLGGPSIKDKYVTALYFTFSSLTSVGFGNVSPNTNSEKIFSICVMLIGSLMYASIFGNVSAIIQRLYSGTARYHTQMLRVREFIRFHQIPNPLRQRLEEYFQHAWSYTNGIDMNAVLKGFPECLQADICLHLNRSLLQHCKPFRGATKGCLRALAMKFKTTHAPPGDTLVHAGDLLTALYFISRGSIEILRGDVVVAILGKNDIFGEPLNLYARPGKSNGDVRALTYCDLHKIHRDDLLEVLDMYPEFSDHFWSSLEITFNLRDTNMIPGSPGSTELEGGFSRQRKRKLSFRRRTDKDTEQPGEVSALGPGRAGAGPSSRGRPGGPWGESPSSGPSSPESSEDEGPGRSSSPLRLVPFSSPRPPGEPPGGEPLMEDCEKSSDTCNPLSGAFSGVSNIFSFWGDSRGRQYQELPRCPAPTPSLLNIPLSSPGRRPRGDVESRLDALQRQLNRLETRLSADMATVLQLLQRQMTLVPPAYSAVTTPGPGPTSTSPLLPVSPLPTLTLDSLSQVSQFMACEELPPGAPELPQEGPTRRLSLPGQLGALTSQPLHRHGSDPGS

Compound | hERG current change (%, negative = inhibition) at 1uM [%]
CCOC(=O)N1CCC(c2cc(=O)n(-c3ccccc3)[nH]2)CC1 | 26.8
CCNC(=S)NC1CC2CCCC(C1)N2CCc1ccccc1 (stereo not drawn) | -17.8
N#Cc1c(SCC(=O)Nc2nccs2)nc2c(c1-c1ccco1)CCCC2 | 2.94
Cc1c(F)cccc1NC(=O)CSCC(=O)Nc1ccccc1 | 5.59
Cc1ccc(NC(=O)C(C)NC(=O)OCc2ccccc2)cc1C (stereo not drawn) | 14.1
COc1ccc(C(F)(F)F)cc1N/C=C/c1nnnn1-c1ccc(C)cc1 | 17.7
CN(C)S(=O)(=O)c1ccc(C(=O)NCC2(N3CCOCC3)CCCCC2)cc1 | 3.52
Cc1ccc(C)c(OCCCC(=O)Nc2ccccc2C(N)=O)c1 | 1.78
O=C(O)CCCn1c(=O)c2cccn2c2ccc(F)cc21 | 4.1
CCCC1Cc2[nH]c(=O)c(C#N)cc2CO1 (stereo not drawn) | 12
COc1cc(NC(=S)NC(C)(C)C)c(OC)cc1Cl | 11.2
CC(C)CCNC(=O)c1c(N)n(Cc2ccc3c(c2)OCO3)c2nc3ccccc3nc12 | 11.9
CS(=O)(=O)c1ccc(C(=O)NC2CCCCC2)cc1 | 10.5
Cc1nc2ncnn2c(C)c1CCC(=O)N1CCCCC1 | 14.6
CCCCn1c(N)c(N(CC(C)C)C(=O)c2cccc(S(=O)(=O)N(C)c3ccc(C)cc3)c2)c(=O)[nH]c1=O | 9.34
COC(=O)NCN1C(=O)C2C3C=CC(C3)C2C1=O (stereo not drawn) | 11.5
COc1ccc(C(=O)NNC(=O)CSc2nnc(C)n2C)cc1 | 19
S=C(NCc1ccccc1)N1CCN(C(=S)NCc2ccccc2)CC1 | 16.8
O=C(NCCCn1ccnc1)c1nn2c(C(F)(F)F)cc(-c3ccc(Br)cc3)nc2c1Cl | -1.16
CCCc1nc(N2CCOCC2)c(C#N)c2c1CCCC2 | 12.6
CN(CC(=O)Nc1ccccc1Cl)C(=O)COC(=O)CCN1C(=O)C2CC=CCC2C1=O (stereo not drawn) | 8.86
Cc1ccc(N2Cc3ccccc3C2=S)cc1 | 11.2
O=C(CSc1nnc(-c2ccccn2)n1Cc1ccco1)c1ccc(Cl)cc1 | -9.97
Nc1ccc(NC(=O)Nc2ccc(N)cc2)cc1 | 18

Compound | hERG current change (%, negative = inhibition) at 1uM [%]
CC(CCc1ccccc1)NC(=S)NC(=O)c1ccco1 (stereo not drawn) | 5.49
CCN(CC(=O)Nc1c(F)cccc1F)C(=O)Cc1ccc2c(c1)OCCO2 | 9.35
O=C(NCC1CCCO1)C(=O)N/N=C/c1ccc(OCc2ccccc2Cl)cc1 (stereo not drawn) | 8.5
COc1cccc2cc(C(=O)OCC(=O)NCc3ccc4c(c3)OCO4)c(=O)oc12 | 8.14
COc1cccc(C(=O)NC2CCCc3ccccc32)c1OC (stereo not drawn) | 12.4
CSc1ncccc1C(=O)NC1CC(C)(C)Cc2c1cnn2-c1ccccc1C (stereo not drawn) | 3.44
COc1ccc(OP(=O)(Nc2ccccc2)Nc2ccccc2)cc1 | 5.66
CC(=O)n1cc([C@@H]2C=C(C(=O)Nc3ccccc3)O[C@H](OCc3ccc(CO)cc3)C2)c2ccccc21 | 5.55
COc1ccc(S(=O)(=O)Nc2ncccn2)cc1 | 10.2
O=C1CCCC2=C1C(c1ccccc1O)C1=C(CCCC1=O)O2 | 6.66
Cc1ccc(C(OC(=O)c2ccco2)C(=O)NC2CCCCC2)cc1 (stereo not drawn) | 16.2
COc1ccc2oc(C(=O)OCC(=O)NC(C)(C#N)C3CC3)c(C)c2c1 (stereo not drawn) | 16.7
Cc1cccc(N2CCN(c3ccc(C(N)=O)cc3[N+](=O)[O-])CC2)c1C | 19.9
Cc1ccc(NC(=O)CCc2c(C)nn(-c3ccc(N4CCOCC4)nn3)c2C)cc1C | 8.88
O=c1oc2ccccc2cc1-c1nc2c(s1)CCCC2 | 7.85
CCOC(=O)c1c(C)[nH]c(N=Nc2ccc(C)cc2C)c1C | 13.9
CC1CCCC(NC(=O)Cn2cc3c(n2)CCCCC3)C1C (stereo not drawn) | 6.63
Cc1cnc(C(=O)N2CCCC(C(=O)c3ccc(C(C)(C)C)cc3)C2)cn1 (stereo not drawn) | 3.19
CC(=O)Nc1nc(C)c(-c2nc3ccc([N+](=O)[O-])cc3[nH]2)s1 | 19.4
CN1C=CC2=C(C#N)C(N)C(C#N)(C#N)C(c3ccccc3)C2C1 (stereo not drawn) | 13.1
c1ccc2c(CNn3cnnc3)cccc2c1 | 14.4
NC(=O)CSc1nc(O)cc(=O)n1-c1ccccc1 | 7.53
O=C1C(Cl)=C(Nc2ccccc2O)C(=O)N1c1ccccc1 | 13.2
O=c1cc(-c2ccccc2F)oc2ccccc12 | 2.56

Compound | hERG current change (%, negative = inhibition) at 1uM [%]
CCCCC(=O)NNC(=S)NC(=O)CCC | 10.9
O=C1CSc2ccc(S(=O)(=O)NCc3ccc(Cl)cc3)cc2N1 | 11.3
CC(=NCC1CCCO1)c1c(O)n(Cc2ccccc2)c(=O)[nH]c1=O (stereo not drawn) | -0.931
Cn1c(=O)c2c(nc3n2CCS3)n(C)c1=O | 10.5
N#Cc1nc(COc2ccccc2Cl)oc1NCc1ccco1 | 12
Cc1ccc(N=Nc2c(N)nn3c(C)cc(C)nc23)cc1 | -4.11
Cc1cc(C)c(C#N)c(SCc2ccccc2C(=O)O)n1 | 4.89
O=C(Nc1nnc(C2COc3ccccc3O2)o1)c1ccc(F)cc1 (stereo not drawn) | 14.8
CC(=O)Nc1cc(C)c2nc(NC(C)=O)sc2c1 | 8.22
O=C(NCc1cccnc1)/C(=C/c1ccco1)NC(=O)c1ccccc1 | -28.3
COc1ccc(NC(=O)CN2C(=O)c3cccc4cccc2c34)c(OC)c1 | 12.5
CCN(CC)C(=O)Cn1cnc2sc(C(=O)NCCCN3CCOCC3)c(C)c2c1=O | 16.1
O=C1CSC(c2ccccc2Cl)N1 (stereo not drawn) | 11.6
CCOC(CNC(=O)c1cccn2c(=O)c3cc(Cl)ccc3nc12)OCC | 2.09
C=CCc1ccc(OCC(O)CN2CCCCC2C)c(OC)c1.Cl (stereo not drawn) | -14.1
COCCNC(=O)c1csc2c1CCCC2 | 8.93
O=C(NCCCN1CCOCC1)c1cc(C(=O)C2CC2)c[nH]1 | 21.7
O=C(NCc1ccccc1)C(c1cccnc1)N(Cc1ccco1)C(=O)c1ccccn1 (stereo not drawn) | 7.61
COCCCn1cnnc1SCC(=O)Nc1ccc(S(=O)(=O)N2CCCC2)cc1 | 13
CC(C)(C)c1ccc(C(=O)NCCCN2CCN(CCCNC(=O)c3ccc(C(C)(C)C)cc3)CC2)cc1 | -5.37
Cc1ccc(S(=O)(=O)Nc2ccc(Cl)cc2C(=O)c2ccc(F)cc2)cc1 | 5.62
O=C(NCc1cccnc1)Nc1ccccc1 | -1.8
CCCNC(=O)c1cnc(-c2ccccc2)nc1-c1ccccc1 | 10.3
CCC(C)Sc1cc(C(F)(F)F)c(C(=O)Nc2ccc(Cl)cc2)cn1 (stereo not drawn) | 8.07

Compound | hERG current change (%, negative = inhibition) at 1uM [%]
CC(C)CNCC1OCc2ccccc2CO1.Cl | 13.9
Cc1ccccc1CNC(=O)CCC(=O)N1CCOc2ccc(Cl)cc21 | 4.97
O=C(NCCCCNC(=O)c1ccccn1)c1ccccn1 | -0.293
COc1ccc(CNS(=O)(=O)CCNC(=O)c2ccc(OC)cc2)cc1 | -4.38
O=C(COC(=O)CCc1nc2ccccc2s1)NCc1ccco1 | 14
COc1cccc(CNCCO)c1OCc1ccccc1.Cl | 5.98
N#Cc1c[nH]n2c(=O)c3c(nc12)CCC3 | 14.5
CC(=O)c1cn(N2CCCCC2)c(=O)[nH]c1=O | 12.4
O=c1oc(-c2cccs2)nc2ccc(Cl)cc12 | 17.4
S=c1[nH]nc(-c2ccccn2)n1/N=C/c1ccc(-c2ccccc2Cl)o1 | 11.2
CCOc1ccccc1NC(=O)CN1CCC(C(=O)c2ccc(F)cc2)CC1 | -6.42
Cc1cccc(C)c1NC(=O)CNC(=O)C(NC(=O)c1ccc(C(C)(C)C)cc1)C(C)C (stereo not drawn) | 20.6
COc1ccc(OCCN2C(=O)c3ccccc3C2=O)c([N+](=O)[O-])c1 | 5.1
O=C(CCS(=O)(=O)Cc1ccccc1)NCC1CCCO1 (stereo not drawn) | 8.86
COc1cccc(NC(=O)CCNS(=O)(=O)c2ccc3c(c2)CC(C)N3C(=O)C2CC2)c1 (stereo not drawn) | 3.29
Cc1ccccc1C(=O)Nc1nc(-c2cccnc2)cs1 | 16.7
CCCNC(=O)C(=O)Nc1cc2c3c(c1)CCC(=O)N3CCC2 | -4.76
O=C(CC1CCCCC1)NCc1ccc(Cl)cc1 | 11.8
Cc1cccc(-n2c(CN3C(=O)c4ccccc4C3=O)nc3ccccc3c2=O)n1 | 2.18
CCOc1ccc(NC(=O)C2C3c4ccccc4C(c4ccccc43)C2C(=O)O)cc1 (stereo not drawn) | 12.9
O=C(O)c1ccccc1N=N/C(=N/Nc1cc(S(=O)(=O)[O-])ccc1O)c1ccccc1.[Na+] | 15.7
